The other results are listed elsewhere or left out.
system: HSkMC (human skeletal muscle cells); assay: cytotoxicity call (relative viability < 0.9); settings: 10 µM

| SMILES | cytotoxicity call |
| --- | --- |
| Cc1cn(CCC#N)c2ccccc12 | inactive |
| CC(C)NC(=O)Nc1ccc2c(c1)C(=O)N([C@H](C)CO)C[C@H](C)[C@@H](CN(C)CC1CCCCC1)OCCCC[C@H](C)O2 | inactive |
| C[C@@H]1CCCCO[C@H](CN(C)Cc2ccc3c(c2)OCO3)[C@@H](C)CN([C@H](C)CO)C(=O)c2cc(NC(=O)Nc3ccc4c(c3)OCO4)ccc2O1 | inactive |
| COc1ccc2c3c([nH]c2c1)[C@H](CO)N(C[C@]13CN(Cc2ccccc2)C1)S(=O)(=O)c1cn(cn1)C | inactive |
| CC(=O)NCCCC[C@@H]1NC(=O)[C@@H]2C[C@H](C(=O)NCCCCN(C)C)[C@H](c3cccc(OCCO)c3)N2C1=O | inactive |
| C[C@@H]1CCCCO[C@H](CN(C)C(=O)C2CCCCC2)[C@H](C)CN([C@H](C)CO)C(=O)c2cc(NS(=O)(=O)c3cccs3)ccc2O1 | inactive |
| COc1ccccc1S(=O)(=O)N[C@H]1C=C[C@H](CC(=O)N2CCN(C)CC2)O[C@H]1CO | inactive |
| C[C@H](CO)N1C[C@H](C)[C@@H](CN(C)Cc2ccc(C(F)(F)F)cc2)Oc2ccc(NC(=O)Nc3ccc4c(c3)OCO4)cc2CC1=O | active |
| COc1ccc(NC(=O)Nc2ccc3c(c2)C(=O)N([C@@H](C)CO)C[C@@H](C)[C@@H](CN(C)S(=O)(=O)c2ccc(OC)cc2)OCCCC[C@H](C)O3)cc1 | inactive |
| C[C@@H]1CN([C@H](C)CO)C(=O)c2cccc(NS(=O)(=O)c3cn(C)cn3)c2O[C@H]1CN(C)Cc1ccc(C(=O)O)cc1 | inactive |
| CC(C)(C)OC(=O)CC[C@]12N=C(c3ccc(OCCCO)cc3)O[C@H]1c1ccccc1CN(C(=O)c1ccccc1)C2=O | inactive |
| Cc1ccc(S(=O)(=O)Nc2ccc3c(c2)CC(=O)N([C@@H](C)CO)C[C@@H](C)[C@H](CN(C)Cc2ccc(Cl)c(Cl)c2)O3)cc1 | inactive |
| C[C@H](CO)N1C[C@H](C)[C@H](CN(C)C(=O)Nc2ccccc2)Oc2ccc(NC(=O)C3CC3)cc2CC1=O | inactive |
| O=C(C[C@H]1CC[C@H]2[C@@H](COC[C@H](O)CN2Cc2ccccc2F)O1)N[C@H]1CCN(Cc2ccccc2)C1 | inactive |
| CC(=O)N[C@@H]1CC[C@H](CCNC(=O)C2CC2)O[C@H]1CO | inactive |
| C[C@@H]1CN([C@H](C)CO)C(=O)c2cc(NC(=O)CCN3CCOCC3)ccc2O[C@@H]1CN(C)Cc1ccccc1 | inactive |
| CCCNC(=O)c1cc2c(c(-c3cccc(-c4cccc(F)c4)c3)n1)[C@@H](CCO)N([S@](=O)C(C)(C)C)C2 | inactive |
| CC(C)NC(=O)N(C)C[C@H]1OCCCC[C@@H](C)Oc2ccc(NC(=O)Nc3cccc4ccccc34)cc2C(=O)N([C@H](C)CO)C[C@@H]1C | inactive |
| O=C(C[C@H]1C[C@H]2c3cc(NS(=O)(=O)c4ccc(F)cc4)ccc3O[C@H]2[C@H](CO)O1)NCc1ccc(Oc2ccccc2)cc1 | inactive |
| COCC#Cc1ccc2c(c1)O[C@H](CN(C)Cc1ccccc1F)[C@@H](C)CN([C@H](C)CO)S2(=O)=O | inactive |
| C=CCC[C@H](Cc1ccc(F)cc1)C(=O)O[C@@H](CNC(=O)[C@@H](CC=C)CC(=O)N[C@H](CO)Cc1ccccc1)c1ccccc1 | active |
| NNC(=O)c1ccc2c(=O)[nH][nH]c(=O)c2c1 | inactive |
| Cc1noc(C)c1NC(=O)N(C)C[C@@H]1Oc2c(NS(=O)(=O)c3ccccc3)cccc2C(=O)N([C@@H](C)CO)C[C@H]1C | inactive |
| COc1ccc(NC(=O)N(C)C[C@@H]2OCCCC[C@H](C)Oc3ccc(NC(=O)c4ccncc4)cc3C(=O)N([C@@H](C)CO)C[C@H]2C)cc1 | inactive |
| Cc1ccc(S(=O)(=O)Nc2ccc3c(c2)C(=O)N([C@@H](C)CO)C[C@@H](C)[C@@H](CN(C)C(=O)Nc2cccc4ccccc24)OCCCC[C@H](C)O3)cc1 | inactive |
| COc1ccc(S(=O)(=O)N(C)C[C@@H]2Oc3ccc(NC(=O)NC(C)C)cc3CC(=O)N([C@H](C)CO)C[C@H]2C)cc1 | inactive |
| Cc1ccccc1S(=O)(=O)N1C[C@H](O)COC[C@H]2O[C@@H](CC(=O)NCCc3ccccc3)CC[C@@H]21 | inactive |
| COCC#Cc1cnc2c(c1)C(=O)N([C@H](C)CO)C[C@H](C)[C@@H](CN(C)C(=O)c1cnccn1)O2 | inactive |
| COc1cc(C=CC(=O)O)ccc1O | inactive |
| CC(C)NC(=O)N(C)C[C@H]1OCc2cn(nn2)CCCC(=O)N([C@H](C)CO)C[C@@H]1C | inactive |

Source: the antibiotic and cytotoxicity screens of Wong et al. (2023)
